Results on 44 compounds are retold here after article PMC4336329 (PLoS ONE, 2015).

The campaign covered roughly 310,000 compounds. About 2,200 (0.71%) showed an effect of 50% or more. The effect is printed as a negative number. Some of the results follow.

For the test, the target named is human ether-à-go-go-related gene (hERG) potassium channel (human, UniProt Q12809). In words: primary screen, population patch clamp on CHO cells stably expressing hERG.
human ether-à-go-go-related gene (hERG) potassium channel, sequence (Q12809 whole entry, looked up): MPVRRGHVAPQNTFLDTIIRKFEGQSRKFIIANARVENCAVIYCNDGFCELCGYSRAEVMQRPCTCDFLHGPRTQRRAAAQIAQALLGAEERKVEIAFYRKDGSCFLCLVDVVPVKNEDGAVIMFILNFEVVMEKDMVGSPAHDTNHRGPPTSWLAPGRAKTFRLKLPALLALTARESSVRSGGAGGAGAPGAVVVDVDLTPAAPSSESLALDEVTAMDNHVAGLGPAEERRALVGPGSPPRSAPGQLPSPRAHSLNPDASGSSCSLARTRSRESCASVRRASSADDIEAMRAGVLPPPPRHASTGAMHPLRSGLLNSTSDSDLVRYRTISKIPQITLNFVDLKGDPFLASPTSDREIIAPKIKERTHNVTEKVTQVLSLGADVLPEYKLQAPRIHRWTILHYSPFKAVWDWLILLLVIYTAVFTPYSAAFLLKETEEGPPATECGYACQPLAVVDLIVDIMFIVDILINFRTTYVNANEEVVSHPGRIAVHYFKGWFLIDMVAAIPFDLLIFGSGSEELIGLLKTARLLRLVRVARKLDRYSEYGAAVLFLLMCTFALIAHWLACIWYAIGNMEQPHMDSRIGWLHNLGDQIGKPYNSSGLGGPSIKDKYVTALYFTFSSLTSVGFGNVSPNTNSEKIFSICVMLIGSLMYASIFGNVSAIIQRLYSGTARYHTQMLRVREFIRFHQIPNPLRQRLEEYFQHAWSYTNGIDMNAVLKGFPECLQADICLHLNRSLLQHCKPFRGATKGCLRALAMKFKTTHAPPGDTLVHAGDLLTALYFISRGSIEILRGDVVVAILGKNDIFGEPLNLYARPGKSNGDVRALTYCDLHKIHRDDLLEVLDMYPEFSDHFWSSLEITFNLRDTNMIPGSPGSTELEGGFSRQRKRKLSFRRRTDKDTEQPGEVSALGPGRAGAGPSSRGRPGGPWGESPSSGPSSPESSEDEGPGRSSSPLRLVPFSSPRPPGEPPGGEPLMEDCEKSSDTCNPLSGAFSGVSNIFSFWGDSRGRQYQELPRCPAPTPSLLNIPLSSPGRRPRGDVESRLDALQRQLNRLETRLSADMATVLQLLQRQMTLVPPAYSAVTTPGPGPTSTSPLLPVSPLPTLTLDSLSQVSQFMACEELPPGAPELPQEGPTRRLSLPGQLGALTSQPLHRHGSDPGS
In the case of `O=[N+]([O-])c1ccc(-c2ccc(/C=N/n3cnnc3)o2)c(Br)c1`, the “hERG current change (%, negative = inhibition) at 1uM” value came to 4.14%.

On to `COc1ccc(NC(=O)Nc2ccccc2F)cc1`, for which the “hERG current change (%, negative = inhibition) at 1uM” value is 14.7%. With `O=S(=O)(Nc1nc2ccccc2nc1NCC1CCCO1)c1cccs1` (centres unmarked), the “hERG current change (%, negative = inhibition) at 1uM” value worked out at 4.63%. As to `COc1cc(NC(=O)CCc2ccccc2)c(C(=O)O)cc1OC`, the “hERG current change (%, negative = inhibition) at 1uM” value was -0.356%. The figure for `COc1ccc(CNC(=O)CN(C(=O)c2snc(C(N)=O)c2N)c2ccccc2F)cc1` is 18.4%; for `NS(=O)(=O)c1ccc(NC(=O)c2cccc(Cl)c2)cc1` it is 10.4%. `COc1cccc(C(=O)Oc2ccc(N3C(=O)CCC3=O)c(C)c2)c1`: the “hERG current change (%, negative = inhibition) at 1uM” value is listed as 10.6%. In the case of `O=C1NC(=S)NC(=O)C1C1CCCCC1`, the “hERG current change (%, negative = inhibition) at 1uM” value turned out to be 5.26%. With `CN(CC(=O)NCCc1ccc(Cl)cc1)S(=O)(=O)c1cccs1`, the “hERG current change (%, negative = inhibition) at 1uM” value is reported as -0.434%. The same measure for `Cc1[nH]c2ccc(-c3n[nH]c(=S)n3C)cc2c1C`: -8.56%; for `Cc1cccc(S(=O)Cc2ccc(C(=O)N3CCN(C(=O)c4ccco4)CC3)o2)c1` (centres unmarked): 9.81%.

Take `CN(C)c1ccc(CNc2ncc(Br)cc2Br)cc1`: the “hERG current change (%, negative = inhibition) at 1uM” value is 0.0422%. The figure for `CN(C(=O)COC(=O)c1cc[n+]([O-])cc1)c1ccccc1` is 15.5%; for `COc1cc(-c2n[nH]c(=S)n2-c2cccc(C(F)(F)F)c2)cc(OC)c1OC` it is 18.6%; for `C/C(=N\NC(=O)CSCc1ccc([N+](=O)[O-])cc1)c1ccccc1O` it is 13.5%. Consider `O=C(C1COc2ccccc2O1)N1CCN(c2nc3ccc([N+](=O)[O-])cc3s2)CC1` (centres unmarked), for which the “hERG current change (%, negative = inhibition) at 1uM” value is listed as -2.5%. As for `CCOC(=O)C1=C(C)Nc2nc(C)nn2C1c1ccc(C)cc1` (centres unmarked), the “hERG current change (%, negative = inhibition) at 1uM” value is 7.1%.

For the compound `COc1ccc(OC)c(Nc2ccc(Nc3cc(OC)ccc3OC)nn2)c1`, the “hERG current change (%, negative = inhibition) at 1uM” value was 10.8%. The same measure for `CSc1ccc(Cl)c(C(=O)OCC(=O)N2CC(C)OC(C)C2)c1` (centres unmarked): 9.15%; for `COc1ccc(-c2cc(C(F)(F)F)n3ncc(C(=O)N4CCCCC4c4cccnc4)c3n2)cc1` (centres unmarked): 14.9%; for `CCCC(=O)OCC(=O)Nc1ccc2[nH]c(=O)[nH]c2c1`: 10.1%.

For `COc1ccc(C2=NN(C(C)=O)CC2c2cccc([N+](=O)[O-])c2)cc1` (centres unmarked), the “hERG current change (%, negative = inhibition) at 1uM” value was 6.63%.

Turning to `Cc1ccc(C(C)C)c(OCCOCCN2CCNCC2)c1.O=C(O)C(=O)O`, the “hERG current change (%, negative = inhibition) at 1uM” value worked out at 11.3%.

With `CNc1nc(=S)[nH]c2ccccc12`, the “hERG current change (%, negative = inhibition) at 1uM” value came out at 11.4%. As to `CCOc1cc(/C=C2\CCCC(C(=O)C(F)(F)F)=C2O)ccc1O`, the “hERG current change (%, negative = inhibition) at 1uM” value was found to be 8.79%. The same measure for `O=c1cccc2n1CC1CC2CN(S(=O)(=O)c2ccccc2)C1` (centres unmarked): 1.76%; for `CC12C(=O)N(c3ccc(OC(=O)c4ccco4)cc3)C(=O)C1C1c3ccccc3C2c2ccccc21` (centres unmarked): 9.93%. In the case of `CCN1CCN(c2ccc(S(=O)(=O)N3CCOCC3)cc2NC(=O)c2ccc(Cl)cc2Cl)CC1`, the “hERG current change (%, negative = inhibition) at 1uM” value came out at 8.83%. With `C=CCOC(=O)C1=C(C)NC(=S)NC1c1cccs1` (centres unmarked), the “hERG current change (%, negative = inhibition) at 1uM” value worked out at 2.16%.

On to `O=C(NC(=S)Nc1cc([N+](=O)[O-])ccc1O)c1ccc2c(c1)OCO2`, for which the “hERG current change (%, negative = inhibition) at 1uM” value amounted to 6.26%. The figure for `COc1ccc(CNC(=O)c2c(C)cc(=O)oc2C)cc1` is 0.196%; for `CCc1nnc(NC(=O)c2cccc(NC(=O)C(C)C)c2)s1` it is 9.32%; for `CC(C)(C)c1ccccc1OCC(=O)NCCCn1ccnc1` it is -0.408%. With `CS(=O)(=O)N(CC(=O)N1CCN(c2ccccc2F)CC1)c1cc(C(F)(F)F)ccc1Cl`, the “hERG current change (%, negative = inhibition) at 1uM” value was found to be 12%. The same measure for `Cc1cccc(NC(=O)CSc2nnc(CNC(=O)c3ccc(S(=O)(=O)N(C)C)cc3)n2-c2ccccc2)c1`: 1.08%; for `COc1cc(C(=S)N2CCN(C)CC2)ccc1OCC(=O)NCc1ccccc1`: 16%; for `Cc1ccc(N(CC(=O)NCc2ccco2)C(=O)CCC(=O)Nc2nccs2)cc1`: 8.45%. The same measure for `O=CN1CCCN(Cc2nc(-c3cccc(Cl)c3)no2)CC1`: 4.03%; for `Clc1ccc(-c2noc(CN3CCOCC3)n2)cc1`: 12.6%. As to `Cc1ccc(C(=O)Nc2nc(-c3ccccc3)c(-c3ccccc3)o2)cc1`, the “hERG current change (%, negative = inhibition) at 1uM” value is on record as -0.531%. `Cc1noc(C)c1S(=O)(=O)Nc1cc(C(F)(F)F)ccc1N1CCOCC1`: the “hERG current change (%, negative = inhibition) at 1uM” value was 11.7%. With `Cc1ccc(-n2c(=O)c3c(n4cnnc24)-c2ccccc2CC32CCCCC2)cc1`, the “hERG current change (%, negative = inhibition) at 1uM” value is on record as 4.46%. On to `O=C1NC(=O)C(=CN2CCc3ccccc32)C(=O)N1`, for which the “hERG current change (%, negative = inhibition) at 1uM” value is recorded as 11.2%.

For `COc1cc(OC)cc(C(=O)NC(=S)Nc2cc3oc4ccccc4c3cc2OC)c1`, the “hERG current change (%, negative = inhibition) at 1uM” value stood at 5.32%.
